# The other results are listed elsewhere or left out.
# B1: Gal 4 (Canis lupus) (protein)
# chain: MAYVPAPGYQPTYNPTLPYNKPIPGGLSVGMSVYIQGITSEHMRRFCVNFVAGAHPGSDIAFHFNPRFDGWDKVVFNSHLGGKWGSEEKKRSMPFRKGTHFELVFMVLAEHYKVVVNGNPFYEFGHRLPLQLVTHLQVEGDVELQSINFIGGTQPLGQGPGHTQQQPSSLPTMEGPPVFNPPVPFRKRLQGGLTVRRTVIIKGFVPFTSKSFVINFMVESSGDLALHINPRLTEGLVVRNSCLNGSWGSEDRKLSYNPFIPGQFFDLSIRCGMDRFKVYANGQHLFDFSHRLLALQNVDMLEINGDVTLSYIQV
# Assays:
# Test in all cases: glycan array binding signal (z-score within array); higher = stronger binding
# Conditions in all cases: glycan notation: IUPAC condensed, linker removed
# [1] = target: Neu5Ac(a2-3)Gal(b1-4)[Fuc(a1-3)]GlcNAc(b1-3)Gal(b1-4)GlcNAc
# Outline: (§1)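 The binding signal is a Z-score computed within each array and averaged over linkers. Arrays of the same protein sequence at different concentrations or buffers were also averaged together. Data originate from 3228 arrays in the Consortium for Functional Glycomics database, kept only where the protein sequence was available.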
# [2] = target: Neu5Ac(a2-3)Gal(b1-4)[Fuc(a1-3)]GlcNAc(b1-3)Gal(b1-4)[Fuc(a1-3)]GlcNAc(b1-3)Gal(b1-4)[Fuc(a1-3)]GlcNAc
# Outline: as §1
# [3] = target: Neu5Ac(a2-3)Gal(b1-4)[Fuc(a1-3)]GlcNAc(b1-3)GalNAc
# Outline: as §1
# [4] = target: Neu5Ac(a2-3)Gal(b1-4)[Fuc(a1-3)]GlcNAc(b1-6)[Gal(b1-3)]GalNAc
# Outline: as §1
# [5] = target: Neu5Ac(a2-3)Gal(b1-4)[Fuc(a1-3)]GlcNAc(b1-6)[Neu5Ac(a2-3)Gal(b1-3)]GalNAc
# Outline: as §1
# [6] = target: Neu5Ac(a2-3)Gal(b1-4)[Fuc(a1-3)]GlcNAc6S
# Outline: as §1
# [7] = target: Neu5Ac(a2-3)Gal6S(b1-4)GlcNAc
# Outline: as §1
# [8] = target: Neu5Ac(a2-3)Gal6S(b1-4)[Fuc(a1-3)]GlcNAc
# Outline: as §1
# Neu5Ac(a2-3)GalNAc = target: Neu5Ac(a2-3)GalNAc
# Outline: as §1
# [9] = target: Neu5Ac(a2-3)GalNAc(b1-4)GlcNAc
# Outline: as §1
# [10] = target: Neu5Ac(a2-3)[GalNAc(b1-4)]Gal(b1-4)Glc
# Outline: as §1
# [11] = target: Neu5Ac(a2-3)[GalNAc(b1-4)]Gal(b1-4)GlcNAc
# Outline: as §1
# [12] = target: Neu5Ac(a2-3)[GalNAc(b1-4)]Gal(b1-4)GlcNAc(b1-3)GalNAc
# Outline: as §1
# [13] = target: Neu5Ac(a2-3)[Neu5Ac(a2-6)]GalNAc
# Outline: as §1
# Neu5Ac(a2-6)Gal = target: Neu5Ac(a2-6)Gal
# Outline: as §1
# [14] = target: Neu5Ac(a2-6)Gal(b1-3)GlcNAc(b1-3)[Gal(b1-4)GlcNAc(b1-6)]Gal(b1-4)Glc
# Outline: as §1
# Neu5Ac(a2-6)Gal(b1-4)Glc = target: Neu5Ac(a2-6)Gal(b1-4)Glc
# Outline: as §1
# [15] = target: Neu5Ac(a2-6)Gal(b1-4)GlcNAc
# Outline: as §1
# [16] = target: Neu5Ac(a2-6)Gal(b1-4)GlcNAc(b1-2)Man(a1-3)Man(b1-4)GlcNAc(b1-4)GlcNAc
# Outline: as §1
# [17] = target: Neu5Ac(a2-6)Gal(b1-4)GlcNAc(b1-2)Man(a1-3)[Gal(b1-4)GlcNAc(b1-2)Man(a1-6)]Man(b1-4)GlcNAc(b1-4)GlcNAc
# Outline: as §1
# [18] = target: Neu5Ac(a2-6)Gal(b1-4)GlcNAc(b1-2)Man(a1-3)[GlcNAc(b1-2)Man(a1-6)]Man(b1-4)GlcNAc(b1-4)GlcNAc
# Outline: as §1
# [19] = target: Neu5Ac(a2-6)Gal(b1-4)GlcNAc(b1-2)Man(a1-3)[GlcNAc(b1-2)Man(b1-4)GlcNAc(b1-2)Man(a1-6)]Man(b1-4)GlcNAc(b1-4)GlcNAc
# Outline: as §1
# [20] = target: Neu5Ac(a2-6)Gal(b1-4)GlcNAc(b1-2)Man(a1-3)[Man(a1-6)]Man(b1-4)GlcNAc(b1-4)GlcNAc
# Outline: as §1
# [21] = target: Neu5Ac(a2-6)Gal(b1-4)GlcNAc(b1-2)Man(a1-3)[Neu5Ac(a2-6)Gal(b1-4)GlcNAc(b1-2)Man(a1-6)]Man(b1-4)GlcNAc(b1-4)GlcNAc
# Outline: as §1
# [22] = target: Neu5Ac(a2-6)Gal(b1-4)GlcNAc(b1-2)Man(a1-6)Man(b1-4)GlcNAc(b1-4)GlcNAc
# Outline: as §1
# [23] = target: Neu5Ac(a2-6)Gal(b1-4)GlcNAc(b1-2)Man(a1-6)[Gal(b1-4)GlcNAc(b1-2)Man(a1-3)]Man(b1-4)GlcNAc(b1-4)GlcNAc
# Outline: as §1
# [24] = target: Neu5Ac(a2-6)Gal(b1-4)GlcNAc(b1-2)Man(a1-6)[GlcNAc(b1-2)Man(a1-3)]Man(b1-4)GlcNAc(b1-4)GlcNAc
# Outline: as §1
# [25] = target: Neu5Ac(a2-6)Gal(b1-4)GlcNAc(b1-2)Man(a1-6)[Man(a1-3)]Man(b1-4)GlcNAc(b1-4)GlcNAc
# Outline: as §1
# [26] = target: Neu5Ac(a2-6)Gal(b1-4)GlcNAc(b1-3)Gal(b1-3)GlcNAc
# Outline: as §1
# [27] = target: Neu5Ac(a2-6)Gal(b1-4)GlcNAc(b1-3)Gal(b1-4)GlcNAc
# Outline: as §1
# [28] = target: Neu5Ac(a2-6)Gal(b1-4)GlcNAc(b1-3)Gal(b1-4)GlcNAc(b1-3)Gal(b1-4)GlcNAc
# Outline: as §1
# [29] = target: Neu5Ac(a2-6)Gal(b1-4)GlcNAc(b1-3)Gal(b1-4)[Fuc(a1-3)]GlcNAc(b1-3)Gal(b1-4)[Fuc(a1-3)]GlcNAc
# Outline: as §1
# [30] = target: Neu5Ac(a2-6)Gal(b1-4)GlcNAc(b1-3)GalNAc
# Outline: as §1
# [31] = target: Neu5Ac(a2-6)Gal(b1-4)GlcNAc6S
# Outline: as §1
# Neu5Ac(a2-6)GalNAc = target: Neu5Ac(a2-6)GalNAc
# Outline: as §1
# [32] = target: Neu5Ac(a2-6)GalNAc(b1-4)GlcNAc
# Outline: as §1
# [33] = target: Neu5Ac(a2-6)GlcNAc(b1-4)GlcNAc
# Outline: as §1
# [34] = target: Neu5Ac(a2-6)GlcNAc(b1-4)GlcNAc(b1-4)GlcNAc
# Outline: as §1
# Neu5Ac(a2-8)Neu5Ac = target: Neu5Ac(a2-8)Neu5Ac
# Outline: as §1
# [35] = target: Neu5Ac(a2-8)Neu5Ac(a2-3)Gal(b1-4)Glc
# Outline: as §1
# [36] = target: Neu5Ac(a2-8)Neu5Ac(a2-3)[Gal(b1-3)GalNAc(b1-4)]Gal(b1-4)Glc
# Outline: as §1
# [37] = target: Neu5Ac(a2-8)Neu5Ac(a2-3)[GalNAc(b1-4)]Gal(b1-4)Glc
# Outline: as §1
# [38] = target: Neu5Ac(a2-8)Neu5Ac(a2-8)Neu5Ac
# Outline: as §1
# [39] = target: Neu5Ac(a2-8)Neu5Ac(a2-8)Neu5Ac(a2-3)Gal(b1-4)Glc
# Outline: as §1
# [40] = target: Neu5Ac(a2-8)Neu5Ac(a2-8)Neu5Ac(a2-3)[GalNAc(b1-4)]Gal(b1-4)Glc
# Outline: as §1
# [41] = target: Neu5Ac(a2-8)Neu5Ac(a2-8)Neu5Ac(a2-8)Neu5Ac(a2-3)[GalNAc(b1-4)]Gal(b1-4)Glc
# Outline: as §1
# [42] = target: Neu5Ac(b2-6)Gal(b1-4)GlcNAc
# Outline: as §1
# Neu5Ac(b2-6)GalNAc = target: Neu5Ac(b2-6)GalNAc
# Outline: as §1
# [43] = target: Neu5Ac9Ac(a2-3)Gal(b1-3)GlcNAc
# Outline: as §1
# [44] = target: Neu5Ac9Ac(a2-3)Gal(b1-4)GlcNAc
# Outline: as §1
# [45] = target: Neu5Ac9Ac(a2-6)Gal(b1-4)GlcNAc
# Outline: as §1
# [46] = target: Neu5Gc(a2-3)Gal(b1-3)GlcNAc
# Outline: as §1
# [47] = target: Neu5Gc(a2-3)Gal(b1-3)[Fuc(a1-4)]GlcNAc
# Outline: as §1
# Neu5Gc(a2-3)Gal(b1-4)Glc = target: Neu5Gc(a2-3)Gal(b1-4)Glc
# Outline: as §1
# [48] = target: Neu5Gc(a2-3)Gal(b1-4)GlcNAc
# Outline: as §1
# [49] = target: Neu5Gc(a2-3)Gal(b1-4)[Fuc(a1-3)]GlcNAc
# Outline: as §1
# [50] = target: Neu5Gc(a2-6)Gal(b1-4)GlcNAc
# Outline: as §1
# Neu5Gc(a2-6)GalNAc = target: Neu5Gc(a2-6)GalNAc
# Outline: as §1
# [51] = target: Neu5Gc(b2-6)Gal(b1-4)GlcNAc
# Outline: as §1
binder,measurement,setting,value
B1,glycan array binding signal (z-score),[1],-0.132
same,glycan array binding signal (z-score),[2],-0.098
same,glycan array binding signal (z-score),[3],-0.067
same,glycan array binding signal (z-score),[4],-0.043
same,glycan array binding signal (z-score),[5],-0.12
same,glycan array binding signal (z-score),[6],-0.146
same,glycan array binding signal (z-score),[7],-0.16
same,glycan array binding signal (z-score),[8],-0.158
same,glycan array binding signal (z-score),Neu5Ac(a2-3)GalNAc,-0.152
same,glycan array binding signal (z-score),[9],-0.15
same,glycan array binding signal (z-score),[10],-0.152
same,glycan array binding signal (z-score),[11],-0.14
same,glycan array binding signal (z-score),[12],-0.121
same,glycan array binding signal (z-score),[13],-0.153
same,glycan array binding signal (z-score),Neu5Ac(a2-6)Gal,-0.152
same,glycan array binding signal (z-score),[14],-0.151
same,glycan array binding signal (z-score),Neu5Ac(a2-6)Gal(b1-4)Glc,-0.153
same,glycan array binding signal (z-score),[15],-0.154
same,glycan array binding signal (z-score),[16],-0.151
same,glycan array binding signal (z-score),[17],-0.114
same,glycan array binding signal (z-score),[18],-0.15
same,glycan array binding signal (z-score),[19],-0.155
same,glycan array binding signal (z-score),[20],-0.156
same,glycan array binding signal (z-score),[21],-0.14
same,glycan array binding signal (z-score),[22],-0.158
same,glycan array binding signal (z-score),[23],-0.145
same,glycan array binding signal (z-score),[24],-0.155
same,glycan array binding signal (z-score),[25],-0.151
same,glycan array binding signal (z-score),[26],-0.152
same,glycan array binding signal (z-score),[27],-0.151
same,glycan array binding signal (z-score),[28],-0.142
same,glycan array binding signal (z-score),[29],-0.152
same,glycan array binding signal (z-score),[30],-0.152
same,glycan array binding signal (z-score),[31],-0.154
same,glycan array binding signal (z-score),Neu5Ac(a2-6)GalNAc,-0.148
same,glycan array binding signal (z-score),[32],-0.147
same,glycan array binding signal (z-score),[33],-0.156
same,glycan array binding signal (z-score),[34],-0.147
same,glycan array binding signal (z-score),Neu5Ac(a2-8)Neu5Ac,-0.152
same,glycan array binding signal (z-score),[35],-0.151
same,glycan array binding signal (z-score),[36],-0.144
same,glycan array binding signal (z-score),[37],-0.133
same,glycan array binding signal (z-score),[38],-0.155
same,glycan array binding signal (z-score),[39],-0.149
same,glycan array binding signal (z-score),[40],-0.134
same,glycan array binding signal (z-score),[41],-0.146
same,glycan array binding signal (z-score),[42],-0.153
same,glycan array binding signal (z-score),Neu5Ac(b2-6)GalNAc,-0.146
same,glycan array binding signal (z-score),[43],-0.151
same,glycan array binding signal (z-score),[44],-0.153
same,glycan array binding signal (z-score),[45],-0.15
same,glycan array binding signal (z-score),[46],-0.146
same,glycan array binding signal (z-score),[47],-0.156
same,glycan array binding signal (z-score),Neu5Gc(a2-3)Gal(b1-4)Glc,-0.156
same,glycan array binding signal (z-score),[48],-0.152
same,glycan array binding signal (z-score),[49],-0.149
same,glycan array binding signal (z-score),[50],-0.154
same,glycan array binding signal (z-score),Neu5Gc(a2-6)GalNAc,-0.149
same,glycan array binding signal (z-score),[51],-0.158
